The campaign covered roughly 310,000 compounds. About 14,000 (4.5%) showed an effect of 50% or more. The effect is printed as a negative number. The list shows a part of the results.
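Also: peak tail current of the secondary pulse compared with the same well before compound.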

For this test, the target named is human ether-à-go-go-related gene (hERG) potassium channel (human, UniProt Q12809). Kind of test: primary screen, population patch clamp on CHO cells stably expressing hERG.
Chain of human ether-à-go-go-related gene (hERG) potassium channel (Q12809 whole entry, looked up): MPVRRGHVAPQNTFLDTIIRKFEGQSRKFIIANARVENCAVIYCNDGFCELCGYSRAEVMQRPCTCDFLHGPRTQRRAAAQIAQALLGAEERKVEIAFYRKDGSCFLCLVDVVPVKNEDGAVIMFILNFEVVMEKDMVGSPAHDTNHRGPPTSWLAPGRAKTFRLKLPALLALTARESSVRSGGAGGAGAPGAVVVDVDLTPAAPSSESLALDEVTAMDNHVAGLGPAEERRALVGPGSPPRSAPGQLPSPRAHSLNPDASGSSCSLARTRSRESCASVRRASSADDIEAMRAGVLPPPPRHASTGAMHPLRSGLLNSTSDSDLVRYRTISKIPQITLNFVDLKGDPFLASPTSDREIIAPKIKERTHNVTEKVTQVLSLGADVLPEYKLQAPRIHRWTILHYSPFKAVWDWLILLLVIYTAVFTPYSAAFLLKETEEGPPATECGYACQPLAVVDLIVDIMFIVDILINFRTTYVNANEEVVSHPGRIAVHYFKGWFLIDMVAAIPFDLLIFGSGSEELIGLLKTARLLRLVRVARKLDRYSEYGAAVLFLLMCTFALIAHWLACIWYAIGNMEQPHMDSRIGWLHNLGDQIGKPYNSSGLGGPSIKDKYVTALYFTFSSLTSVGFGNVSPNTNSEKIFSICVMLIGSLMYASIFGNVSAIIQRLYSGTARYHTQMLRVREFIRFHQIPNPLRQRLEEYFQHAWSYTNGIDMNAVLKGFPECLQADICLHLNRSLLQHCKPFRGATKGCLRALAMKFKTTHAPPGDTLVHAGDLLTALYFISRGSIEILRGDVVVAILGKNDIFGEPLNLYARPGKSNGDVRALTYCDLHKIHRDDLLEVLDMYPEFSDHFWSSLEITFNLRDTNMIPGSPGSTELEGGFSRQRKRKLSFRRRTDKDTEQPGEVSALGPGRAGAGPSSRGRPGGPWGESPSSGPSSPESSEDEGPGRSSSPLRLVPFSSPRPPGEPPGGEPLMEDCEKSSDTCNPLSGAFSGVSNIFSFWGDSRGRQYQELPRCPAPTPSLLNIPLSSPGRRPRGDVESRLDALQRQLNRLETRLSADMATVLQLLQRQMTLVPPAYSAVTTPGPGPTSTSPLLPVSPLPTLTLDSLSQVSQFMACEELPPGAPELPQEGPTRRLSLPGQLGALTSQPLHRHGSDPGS
On to `COc1cnn(-c2cc(Oc3ccc(C)cc3)ncn2)c(=O)c1Cl`, for which the “hERG current change (%, negative = inhibition) at 10uM” value is on record as 2.74%.

`CNc1nc2sc3c(c2c(=O)n1C)CC(C)(C)SC3`: the “hERG current change (%, negative = inhibition) at 10uM” value is reported as -16%.

For `CC1CCC(NC(=O)c2ccc(NS(=O)(=O)c3ccc4[nH]c(=O)[nH]c4c3)cc2)CC1` (centres unmarked), the “hERG current change (%, negative = inhibition) at 10uM” value is reported as 2.37%.

For the compound `COC(=O)c1cc2c(cc1NC(=O)CSCCc1ccccn1)OCO2`, the “hERG current change (%, negative = inhibition) at 10uM” value was determined as 7.82%.

For `CC1CCN(CC(=O)Nc2cc(C(F)(F)F)ccc2Cl)CC1`, the “hERG current change (%, negative = inhibition) at 10uM” value came to 20.4%.

Take `CN1CCN(C(=O)c2ccc(C3SCC(=O)N3Cc3ccco3)cc2)CC1` (centres unmarked): the “hERG current change (%, negative = inhibition) at 10uM” value was determined as 6.13%.

With `Cn1c(/C=C/c2ccccc2)nc2ccccc21`, the “hERG current change (%, negative = inhibition) at 10uM” value amounted to 16.8%.

Take `COc1ccc2ccccc2c1C(=O)/C=C\c1ccoc1`: the “hERG current change (%, negative = inhibition) at 10uM” value is -31.6%.

With `Cc1c(C(=O)N(C)Cc2ccccc2)oc2ccc(S(=O)(=O)N3CCCC3)cc12`, the “hERG current change (%, negative = inhibition) at 10uM” value was -11.8%.

As to `Cc1nc2nc(NC(=O)c3ccco3)nn2c(C)c1Cl`, the “hERG current change (%, negative = inhibition) at 10uM” value is -1.18%.

Consider `CCn1c(SCC(=O)N=Nc2c(O)[nH]c3ccccc23)nc2ccccc21`, for which the “hERG current change (%, negative = inhibition) at 10uM” value is given as -11.9%.

Consider `COc1ccccc1CNC(=O)CN1C(=O)c2ccccc2S1(=O)=O`, for which the “hERG current change (%, negative = inhibition) at 10uM” value was 12.7%.

As for `Cc1ccc(C(=O)CCC(=O)Nc2ncccc2C)cc1`, the “hERG current change (%, negative = inhibition) at 10uM” value came to 6.86%.

For the compound `Cc1ccc(C)c(Cn2c(=O)n(CCC(=O)NCc3ccco3)c(=O)c3sccc32)c1`, the “hERG current change (%, negative = inhibition) at 10uM” value is 7.18%.

Consider `CCc1sc(C(=O)Nc2cc(S(=O)(=O)N3CCOCC3)ccc2OC)cc1C`, for which the “hERG current change (%, negative = inhibition) at 10uM” value is 7.24%.

For the compound `S=C(Nc1ccc(Nc2ccccc2)cc1)NC1CCCCCC1`, the “hERG current change (%, negative = inhibition) at 10uM” value was 4.19%.

In the case of `COc1ccc(OC)c2c(=O)cc(C(=O)O)[nH]c12`, the “hERG current change (%, negative = inhibition) at 10uM” value was 13.3%.

As for `CCc1cc2c(=O)[nH]c(-c3ccccn3)nc2s1`, the “hERG current change (%, negative = inhibition) at 10uM” value is listed as -4.89%.

Turning to `COc1ccc(Br)c(C(=O)Nn2c(C)nc3ccccc3c2=O)c1`, the “hERG current change (%, negative = inhibition) at 10uM” value is listed as -7.27%.

Regarding `COc1ccc(S(=O)(=O)Nc2ccccc2)cc1OC`, the “hERG current change (%, negative = inhibition) at 10uM” value is -14.9%.

As for `Cc1ccc(C(=O)NCC(=O)OCc2c(F)cccc2Cl)cc1`, the “hERG current change (%, negative = inhibition) at 10uM” value was -0.578%.

Turning to `COc1cc2c(cc1OC)C(C(=O)N(C)C1CCCCC1)C1CCCCN1C2=O` (centres unmarked), the “hERG current change (%, negative = inhibition) at 10uM” value came to 10.2%.

On to `O=C(N/N=C/c1ccc(O)c(O)c1)C1CC1`, for which the “hERG current change (%, negative = inhibition) at 10uM” value was 10.3%.

As to `Cc1c(C(=O)N/N=C/c2ccc(Cl)cc2)[nH]c2ccc(Cl)cc12`, the “hERG current change (%, negative = inhibition) at 10uM” value is 12.4%.

Consider `Cc1cc(C)cc(N=C2SC(CC(=O)Nc3ccccc3)C(=O)N2CCN2CCOCC2)c1` (centres unmarked), for which the “hERG current change (%, negative = inhibition) at 10uM” value was -5.35%.

Regarding `O=C(COc1ccc(Cl)cc1)NCc1nnc(SCC(=O)Nc2ccccc2F)o1`, the “hERG current change (%, negative = inhibition) at 10uM” value was -2.16%.

As for `COc1cc(CC(C#N)(CO)c2nc3ccccc3[nH]2)ccc1OC(F)F` (centres unmarked), the “hERG current change (%, negative = inhibition) at 10uM” value is -18.9%.

`COc1ccccc1C(O)P(=O)(OCC(C)C)c1ccc(N(C)C)cc1` (centres unmarked): the “hERG current change (%, negative = inhibition) at 10uM” value is -0.204%.

For `Cn1cc(CN2CCN(Cc3ccccc3)CC2)c(-c2cccc(Cl)c2)n1`, the “hERG current change (%, negative = inhibition) at 10uM” value is on record as -53%.

With `COc1ccc(CN(C)C(=O)c2cc(S(=O)(=O)N3CCCCCC3)ccc2OC)cc1OC`, the “hERG current change (%, negative = inhibition) at 10uM” value is given as -16.9%.

Turning to `CCC1CCCCN1CCCNC(=O)Cn1nc(C)n2nc(-c3ccccc3)cc2c1=O` (centres unmarked), the “hERG current change (%, negative = inhibition) at 10uM” value is recorded as -45.2%.

Turning to `Cc1ccc(C(C)C)c(OCCn2ccnc2C)c1.O=C(O)C(=O)O`, the “hERG current change (%, negative = inhibition) at 10uM” value was -35.1%.

Regarding `Cc1nn(C(=O)N2CCOCC2)c(C)c1CN1C(=O)c2ccccc2C1=O`, the “hERG current change (%, negative = inhibition) at 10uM” value was determined as 2.27%.

With `Cc1c(NC(=O)c2ccc3ncccc3c2)c(=O)n(-c2ccccc2)n1C`, the “hERG current change (%, negative = inhibition) at 10uM” value worked out at 27.3%.

Take `CCCc1nnc(SCC(=O)Nc2ccc(OC)cc2)o1`: the “hERG current change (%, negative = inhibition) at 10uM” value came out at 28.8%.

Take `CC(=O)c1c(C)n(C2CCCCC2)c2ccc(O)cc12`: the “hERG current change (%, negative = inhibition) at 10uM” value turned out to be 2.36%.

`Cl.OCCCCNCc1ccc(OCc2ccccc2Cl)cc1`: the “hERG current change (%, negative = inhibition) at 10uM” value is listed as -15.9%.

`CC1C/C(=N\NC(=S)NCc2ccccc2)CC(C)(C)C1` (centres unmarked): the “hERG current change (%, negative = inhibition) at 10uM” value is recorded as -8.07%.

With `CCn1c(SCC(=O)Nc2ccc3[nH]c(=O)[nH]c3c2)nc2ccccc21`, the “hERG current change (%, negative = inhibition) at 10uM” value is 11.8%.

With `COc1ccccc1C1NC(=O)CS1` (centres unmarked), the “hERG current change (%, negative = inhibition) at 10uM” value is -15.3%.

On to `Cc1cccc(NC(=O)C2=C(O)c3ccccc3N(C)S2(=O)=O)c1`, for which the “hERG current change (%, negative = inhibition) at 10uM” value worked out at 22.9%.

`O=C(CCSc1nnc(-c2ccncc2)o1)Nc1ccccc1`: the “hERG current change (%, negative = inhibition) at 10uM” value stood at 1.1%.

On to `O=C(Nc1ccc(F)c(Cl)c1)C1CCCC1`, for which the “hERG current change (%, negative = inhibition) at 10uM” value turned out to be 25.2%.

Take `Fc1ccc(-c2cc(C(F)(F)F)nc(N3CCCCC3)n2)cc1`: the “hERG current change (%, negative = inhibition) at 10uM” value worked out at 19.5%.

On to `CN(CC(=O)Nc1ccc(Cl)cc1)CC(=O)Nc1cccc2ccccc12`, for which the “hERG current change (%, negative = inhibition) at 10uM” value is -2.26%.

As for `COc1ccc(-n2c(O)cnc2Nc2nc(C)cc(C)n2)cc1OC`, the “hERG current change (%, negative = inhibition) at 10uM” value amounted to 4.1%.

As for `CCOc1ccc(NS(=O)(=O)c2cc(C(=O)N3CCC3)ccc2Cl)cc1`, the “hERG current change (%, negative = inhibition) at 10uM” value is -10%.

As to `CC1CC(C)CN(C(=O)c2ccc3ncsc3c2)C1` (centres unmarked), the “hERG current change (%, negative = inhibition) at 10uM” value is 8.74%.

Turning to `CC(C)CC(OC(=O)c1nsc(Cl)c1Cl)C(=O)NCc1cccs1` (centres unmarked), the “hERG current change (%, negative = inhibition) at 10uM” value is listed as 7.86%.

For `COc1ccccc1NC(=O)CN1CCN(C(=O)c2ccco2)CC1`, the “hERG current change (%, negative = inhibition) at 10uM” value is given as -22%.

As to `Cn1cnnc1SCC(=O)NC(=O)NCc1ccccc1`, the “hERG current change (%, negative = inhibition) at 10uM” value is on record as 10.3%.

With `COc1ccc(C2=CC(=O)C[C@H](c3ccc(F)cc3)C2)c(OC)c1`, the “hERG current change (%, negative = inhibition) at 10uM” value is given as -1.06%.

As for `CN(Cc1ccco1)S(=O)(=O)c1nnc(NC(=O)c2ccccc2Cl)s1`, the “hERG current change (%, negative = inhibition) at 10uM” value was 15%.

Consider `N#C/C(=C(/O)COC(=O)c1ccc(O)cc1)c1nc2ccccc2[nH]1`, for which the “hERG current change (%, negative = inhibition) at 10uM” value was found to be 2.01%.

As to `Cc1cccc(NC(=S)NCc2ccco2)c1C`, the “hERG current change (%, negative = inhibition) at 10uM” value was found to be 12.6%.

As to `COc1ccc(NC(=O)CSc2nnc(-c3cccnc3)o2)c(OC)c1`, the “hERG current change (%, negative = inhibition) at 10uM” value is -15.4%.

`COc1ccc(C(=O)NNC(=O)CNC(=O)C2CCCCC2)cc1`: the “hERG current change (%, negative = inhibition) at 10uM” value is listed as 14%.

For `Cc1ccccc1OCC(=O)NCC(C)(C)N1CCOCC1`, the “hERG current change (%, negative = inhibition) at 10uM” value came to 7.19%.

`O=C(Cc1ccccc1)Nc1ccc(NC(=O)c2ccccc2)c(Cl)c1`: the “hERG current change (%, negative = inhibition) at 10uM” value is on record as 17.5%.

These data come from PMC4336329 (PLoS ONE, 2015).
